One molecule from patent US20250154276A1 (ZONHON BIOPHARMA INSTITUTE, published 2025) can be followed below.

This test deals with human CD26 (human, UniProt P27487 1-766). Put plainly: cell-based or functional assay.

B1: ZB09 (bispecific antibody, human IgG1)
chain: DIVMTQSASSLPVTPGEPASISCRSDKSLLHSNGNTYLYWFLQKPGQSPQVLIYRMSNLASGVPDRFSGSGSGTDFTLTISRVEAEDVGVYYCFQQLEYPYTFGQGTKLEIKGGGGSGGGGSGGGGSQVQLVQSGAEVVKPGASVKISCKASGFNIKDTYIYWVRQRTGQGLEWIGRIEPMNGNTKYDPKFQGRLTMTANTSKNTAYLQLSSLTSEDTAVYYCSRGGWLLLYVMDYWGQGTTVTVSSGGGGSDVQLVQSGAEVKKPGASVKVSCKASGYTFTRYTMHWVRQAPGQGLEWIGYINPSRGYTNYADSVKGRFTITTDKSTSTAYMELSSLRSEDTATYYCARYYDDHYCLDYWGQGTTVTVSSGGGGSGGGGSGGGGSDIVLTQSPATLSLSPGERATLSCRASQSVSYMNWYQQKPGKAPKRWIYDTSKVASGVPARFSGSGSGTDYSLTINSLEAEDAATYYCQQWSSNPLTFGGGTKVEIKGGGG[human IgG1 Fc cut from this listing]GGGGSGGGGSGGGGSGGGGSGGGGSGGGGSGGGGSGGGGSGGGGSGGGGSGGGGSGGGGS[human IgG1 Fc cut from this listing]
On to B1, for which the “IC50 values (pM) of different bispecific antibodies mediating PBMC cytotoxicity to OS-RC-2” value stood at 10.1 pM.
